# According to the supplement of paper PMC4604168 (melanoma cell lines):
# This is one part of the list. Single values are uncertain, as repeats are few or missing.
# Test system: WM3526
# Assay: cell count relative to DMSO control; melanoma cells; higher = more viable cells
# Settings: library dose: standard library concentration; 72 h
# 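Also: cells treated in 1,536-well plates, then fixed and DAPI-stained, with nuclei counted from automated high-throughput microscope images.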
row,SMILES,cell count
1,"Cc1ccc(NC(=O)c2cccc(N(C)C)c2)cc1NC(=O)c1ccc(O)cc1 + COc1cc(N2CCC(N3CCN(C)CC3)CC2)ccc1Nc1ncc(Cl)c(Nc2ccccc2S(=O)(=O)C(C)C)n1 [NVP-TAE684] (first compound 10 µM, partner dose 0.4 µM)",71.3%
2,"COc1cc2c(Oc3ccc4[nH]c(C)cc4c3F)ncnc2cc1OCCCN1CCCC1 [cediranib] + COc1cc(N2CCC(N3CCN(C)CC3)CC2)ccc1Nc1ncc(Cl)c(Nc2ccccc2S(=O)(=O)C(C)C)n1 [NVP-TAE684] (first compound 2 µM, partner dose 0.4 µM)",67.1%
3,"COc1cc2c(Oc3ccc4[nH]c(C)cc4c3F)ncnc2cc1OCCCN1CCCC1 [cediranib] + Cn1cc(/C=C2\C(=O)Nc3cccnc32)c2ccccc21 [GW441756] (first compound 2 µM, partner dose 2 µM)",79.3%
4,"COc1cc2c(Oc3ccc4[nH]c(C)cc4c3F)ncnc2cc1OCCCN1CCCC1 [cediranib] + Oc1cc(-c2nc(-c3ccccc3)[nH]c2-c2ccncc2)ccc1Cl [L779450] (first compound 2 µM, partner dose 1 µM)",45.5%
5,"NC(=O)c1ccc(N(C(N)=O)c2c(F)cccc2F)nc1-c1ccc(F)cc1F + Cc1nc(Nc2ncc(C(=O)Nc3c(C)cccc3Cl)s2)cc(N2CCN(CCO)CC2)n1 [dasatanib] (first compound 2 µM, partner dose 0.02 µM)",76.6%
6,"CC(C)(C)c1cnc(CSc2cnc(NC(=O)C3CCNCC3)s2)o1 + c1cc(-c2cnn3cc(-c4ccc(OCCN5CCCCC5)cc4)cnc23)ccn1 [Dorsomorphin] (first compound 0.05 µM, partner dose 2 µM)",53%
